# Test results as given in the supplement of paper PMC8728848.
# The other results are listed elsewhere or left out.
# B1: GS14009A-pdi-495-27-495 (Parabacteroides distasonis) (protein)
# chain: FEEVNTDPDSPTDVPTTNLLAYSLYYTSYRLYDRWFAMDEPMTFCGYASKMTYIDESRYNFRTGVQDTNWEYLYRILNNLKDIEKRATFNETPNMLNVSKVMQVHLMQVATDRWRDVPYTDAAKMTDGILQPKYDKQEDIYPGLLATLKEAADGFADGGSDDLGEGDLLFGGDIEKWQRYCNSMRLRLAMRISEVSPALAKETVEEVMGNPTKYPIMESNDDNAFFWWIGTDPNYYEPMADGYRTRKTEYCAADVIVDHMNTREDPRRSSYFQPTKESVEAGEPKYVGYTIGAKANAVASKYSIWGARFFTDLAGFSPYMRVAEPWFCVAEASMLGWNTGISAEDAYNKAVTYSMEENSVSAEDIADYLANAGKFTNDKKQIYYEEWVAMFKQGMEGWSLYRRTGVPDNLYPAPGRPANYSNHNVPPFRSPYPDKERNLNNANCAPFDAEVVDNLWGKQMWWDTRTGVH
# Tests used:
# Test in all cases: glycan array binding signal (z-score within array); higher = stronger binding
# Conditions in all cases: glycan notation: IUPAC condensed, linker removed
# [1] = molecular target: Neu5Ac(a2-6)GlcNAc(b1-4)GlcNAc(b1-4)GlcNAc
# How it was run: (§1)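 Columns mapping to the same glycan were averaged after glycan names were converted to IUPAC-condensed notation. The data come from 3228 arrays in the Consortium for Functional Glycomics database, limited to those with an available protein sequence. Binding is reported as a within-array Z-score averaged across arrays of one protein sequence and across linkers.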
# [2] = molecular target: Neu5Ac(a2-8)Neu5Ac
# How it was run: as §1
# [3] = molecular target: Neu5Ac(a2-8)Neu5Ac(a2-3)Gal(b1-3)GalNAc(b1-4)[Neu5Ac(a2-3)]Gal(b1-4)Glc
# How it was run: as §1
# [4] = molecular target: Neu5Ac(a2-8)Neu5Ac(a2-3)Gal(b1-3)GalNAc(b1-4)[Neu5Ac(a2-8)Neu5Ac(a2-3)]Gal(b1-4)Glc
# How it was run: as §1
# [5] = molecular target: Neu5Ac(a2-8)Neu5Ac(a2-3)Gal(b1-4)Glc
# How it was run: as §1
# [6] = molecular target: Neu5Ac(a2-8)Neu5Ac(a2-3)Gal(b1-4)GlcNAc
# How it was run: as §1
# [7] = molecular target: Neu5Ac(a2-8)Neu5Ac(a2-3)[Gal(b1-3)GalNAc(b1-4)]Gal(b1-4)Glc
# How it was run: as §1
# [8] = molecular target: Neu5Ac(a2-8)Neu5Ac(a2-3)[GalNAc(b1-4)]Gal(b1-4)Glc
# How it was run: as §1
# [9] = molecular target: Neu5Ac(a2-8)Neu5Ac(a2-8)Neu5Ac
# How it was run: as §1
# [10] = molecular target: Neu5Ac(a2-8)Neu5Ac(a2-8)Neu5Ac(a2-3)Gal(b1-4)Glc
# How it was run: as §1
# [11] = molecular target: Neu5Ac(a2-8)Neu5Ac(a2-8)Neu5Ac(a2-3)[Gal(b1-3)GalNAc(b1-4)]Gal(b1-4)Glc
# How it was run: as §1
# [12] = molecular target: Neu5Ac(a2-8)Neu5Ac(a2-8)Neu5Ac(a2-3)[GalNAc(b1-4)]Gal(b1-4)Glc
# How it was run: as §1
# [13] = molecular target: Neu5Ac(a2-8)Neu5Ac(a2-8)Neu5Ac(a2-8)Neu5Ac(a2-3)[GalNAc(b1-4)]Gal(b1-4)Glc
# How it was run: as §1
# [14] = molecular target: Neu5Ac(a2-8)Neu5Gc(a2-3)Gal(b1-4)GlcNAc
# How it was run: as §1
# [15] = molecular target: Neu5Ac(b2-6)Gal(b1-4)GlcNAc
# How it was run: as §1
# [16] = molecular target: Neu5Ac(b2-6)GalNAc
# How it was run: as §1
# [17] = molecular target: Neu5Ac9Ac(a2-3)Gal(b1-3)GlcNAc
# How it was run: as §1
# [18] = molecular target: Neu5Ac9Ac(a2-3)Gal(b1-4)GlcNAc
# How it was run: as §1
# [19] = molecular target: Neu5Ac9Ac(a2-6)Gal(b1-4)GlcNAc
# How it was run: as §1
# [20] = molecular target: Neu5Gc(a2-3)Gal(b1-3)GlcNAc
# How it was run: as §1
# [21] = molecular target: Neu5Gc(a2-3)Gal(b1-3)[Fuc(a1-4)]GlcNAc
# How it was run: as §1
# [22] = molecular target: Neu5Gc(a2-3)Gal(b1-4)Glc
# How it was run: as §1
# [23] = molecular target: Neu5Gc(a2-3)Gal(b1-4)GlcNAc
# How it was run: as §1
# [24] = molecular target: Neu5Gc(a2-3)Gal(b1-4)GlcNAc(b1-3)Gal(b1-4)GlcNAc(b1-2)Man(a1-3)[Neu5Gc(a2-3)Gal(b1-4)GlcNAc(b1-3)Gal(b1-4)GlcNAc(b1-2)Man(a1-6)]Man(b1-4)GlcNAc(b1-4)GlcNAc
# How it was run: as §1
# [25] = molecular target: Neu5Gc(a2-3)Gal(b1-4)[Fuc(a1-3)]GlcNAc
# How it was run: as §1
# [26] = molecular target: Neu5Gc(a2-6)Gal(b1-4)GlcNAc
# How it was run: as §1
# [27] = molecular target: Neu5Gc(a2-6)GalNAc
# How it was run: as §1
# [28] = molecular target: Neu5Gc(a2-8)Neu5Ac(a2-3)Gal(b1-4)GlcNAc
# How it was run: as §1
# [29] = molecular target: Neu5Gc(a2-8)Neu5Gc(a2-3)Gal(b1-4)GlcNAc
# How it was run: as §1
# [30] = molecular target: Neu5Gc(a2-8)Neu5Gc(a2-3)Gal(b1-4)GlcNAc(b1-3)Gal(b1-4)GlcNAc
# How it was run: as §1
# [31] = molecular target: Neu5Gc(a2-8)Neu5Gc(a2-6)Gal(b1-4)GlcNAc
# How it was run: as §1
# [32] = molecular target: Neu5Gc(b2-6)Gal(b1-4)GlcNAc
# How it was run: as §1
binder,measurement,setting,value
B1,glycan array binding signal (z-score),[1],-0.171
same,glycan array binding signal (z-score),[2],-0.289
same,glycan array binding signal (z-score),[3],-0.074
same,glycan array binding signal (z-score),[4],-0.264
same,glycan array binding signal (z-score),[5],-0.466
same,glycan array binding signal (z-score),[6],0.444
same,glycan array binding signal (z-score),[7],1.13
same,glycan array binding signal (z-score),[8],0.357
same,glycan array binding signal (z-score),[9],0.027
same,glycan array binding signal (z-score),[10],-0.037
same,glycan array binding signal (z-score),[11],0.501
same,glycan array binding signal (z-score),[12],-0.405
same,glycan array binding signal (z-score),[13],-0.277
same,glycan array binding signal (z-score),[14],-0.169
same,glycan array binding signal (z-score),[15],-0.493
same,glycan array binding signal (z-score),[16],-0.455
same,glycan array binding signal (z-score),[17],-0.342
same,glycan array binding signal (z-score),[18],-0.016
same,glycan array binding signal (z-score),[19],-0.284
same,glycan array binding signal (z-score),[20],-0.144
same,glycan array binding signal (z-score),[21],-0.361
same,glycan array binding signal (z-score),[22],-0.286
same,glycan array binding signal (z-score),[23],-0.276
same,glycan array binding signal (z-score),[24],-0.109
same,glycan array binding signal (z-score),[25],-0.548
same,glycan array binding signal (z-score),[26],-0.394
same,glycan array binding signal (z-score),[27],-0.671
same,glycan array binding signal (z-score),[28],-0.282
same,glycan array binding signal (z-score),[29],-0.499
same,glycan array binding signal (z-score),[30],-0.092
same,glycan array binding signal (z-score),[31],0.137
same,glycan array binding signal (z-score),[32],0.367
